{"source": "PubChem BioAssay AID624417", "about": "(National Center for Advancing Translational Sciences (NCATS), 2012)", "note": "Out of some 410,000 compounds screened, about 6,400 (1.6%) were called active. This list was built around the results that the source calls inconclusive (neither active nor inactive); the mix of calls is not that of the screen. The call rests on the fitted dose curve; in most records, active means well fitted inhibition curve with a large enough effect; inconclusive means small, poorly fitted or top-dose-only effect; inactive means no such curve, though single readings can be large or run the other way. No potency is given beside an inconclusive call; the fits are too rough."}
{"biological_target": "Glucagon-like peptide 1 receptor (Homo sapiens) (UniProt P43220)", "sequence (P43220 whole entry, looked up)": "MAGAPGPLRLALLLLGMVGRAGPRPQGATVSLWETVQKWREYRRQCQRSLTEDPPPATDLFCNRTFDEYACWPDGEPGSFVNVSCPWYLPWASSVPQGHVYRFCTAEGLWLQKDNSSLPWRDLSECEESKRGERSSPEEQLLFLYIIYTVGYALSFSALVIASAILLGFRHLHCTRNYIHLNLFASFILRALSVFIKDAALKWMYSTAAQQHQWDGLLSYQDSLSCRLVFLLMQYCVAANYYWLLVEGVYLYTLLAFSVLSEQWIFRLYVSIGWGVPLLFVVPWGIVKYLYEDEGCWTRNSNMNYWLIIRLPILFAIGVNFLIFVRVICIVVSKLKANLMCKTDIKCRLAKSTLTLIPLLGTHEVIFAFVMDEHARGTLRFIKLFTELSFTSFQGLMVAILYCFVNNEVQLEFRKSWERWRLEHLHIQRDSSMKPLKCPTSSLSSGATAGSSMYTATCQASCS", "experiment": "qHTS of GLP-1 Receptor Inverse Agonists (Inhibition Mode); further: nearly all actives have a fitted effect of over 55% in size; further: potency means the concentration at half of the fitted maximal effect; tags describe the fitted curve by direction and shape; on activity change, negative = inhibition: on the % scale 0 is the no-effect control and ±100 the full control effect", "settings": "HEK293 GLP-1R CRE-luciferase, luminescence, 24 h, GLP-1R form is constitutively active; activity change, negative = inhibition: at 38.3 µM (top of the series) unless noted", "summary_of_the_method": "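Cells are plated, allowed 12 hours at 37 deg C, then treated with compounds for 24 hr before luciferase detection reagent is added and luminescence is read after 12 min at room temperature. The HEK293 line carries constitutively active GLP-1R with a cAMP-responsive reporter.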"}
{"compound": "CC(C)N1CCC1(C)C(=O)Nc1ccc(-n2cccc2)cc1", "note": "(centres undefined)", "Potency": "inconclusive [inhibitor, partial curve, poor fit]"}
{"compound": "CC(=O)Nc1ccc(NC(=O)C2Cc3ccccc3N2C(=O)c2ccccc2)cc1", "note": "(centres undefined)", "activity change, negative = inhibition": "inactive: 7.89%"}
{"compound": "O=C1c2ccc3c4c(ccc(c24)C(=O)N1CCCCO)C(=O)N(CCCCO)C3=O", "Potency": "inconclusive [inhibitor, partial curve, poor fit]"}
{"compound": "CCCCOC(=O)c1ccc(N/C(=N\\S(=O)(=O)c2ccccc2)c2ccccc2)cc1", "Potency": "inconclusive [inhibitor, partial curve, poor fit]"}
{"compound": "CCCCCc1ccc(CC(=O)N2CCOCC2)cc1", "Potency": "inconclusive [inhibitor, partial curve, poor fit]"}
{"compound": "O=C(Cc1c(F)cccc1Cl)Nc1nc2ccccc2s1", "Potency": "inconclusive [inhibitor, single point]"}
{"compound": "COc1cccc(N2CCN(C(=O)CC(NC(=O)c3ccccc3)c3ccccc3)CC2)c1", "note": "(centres undefined)", "activity change, negative = inhibition": "inactive: -28.3%"}
{"compound": "OCCN1CCN(CCCN2c3ccccc3CCc3ccccc32)CC1", "Potency": "inconclusive [inhibitor, partial curve, poor fit]"}
{"compound": "O=C(NCC(=O)N1CCN(Cc2ccccc2)CC1)c1ccc(Br)cc1", "Potency": "inconclusive [inhibitor, partial curve, poor fit]"}
{"compound": "COCCn1c(SCC(=O)NC(C)c2ccc(F)cc2)nc2ccccc21", "note": "(centres undefined)", "Potency": "inconclusive [inhibitor, single point]"}
{"compound": "CCC1Sc2ccc(S(=O)(=O)CCC(=O)NCc3cccs3)cc2NC1=O", "note": "(centres undefined)", "Potency": "inconclusive [inhibitor, partial curve, poor fit]"}
{"compound": "COc1ccc(Cl)cc1C(=O)NCc1nc(-c2cccc(C)c2)no1", "activity change, negative = inhibition": "inactive: -24.5%"}
{"compound": "O=C(c1ccc([N+](=O)[O-])cc1)N1c2ncnn2C2(CCCCC2)[C@@H]2CCCC[C@@H]21", "activity change, negative = inhibition": "inactive: 5.21%"}
{"compound": "CC(=O)NC(=S)Nc1ccc(NC(=O)COc2ccc(Cl)cc2Cl)cc1", "Potency": "inconclusive [inhibitor, partial curve]"}
{"compound": "Cc1ccc2[nH]c(C)c(CCN(Cc3cccnc3)C(=S)NC(C)(C)C)c2c1", "activity change, negative = inhibition": "inconclusive: -35.1% [inhibitor]"}
{"compound": "COc1cc(OC)c2c(-c3ccccc3)cc(=O)oc2c1C(CCN1CCOCC1)c1ccc2c(c1)OCO2", "note": "(centres undefined)", "Potency": "inconclusive [inhibitor, single point]"}
{"compound": "COc1ccc(/C=C/C(=O)Nc2cccc(S(=O)(=O)N3CCCC3)c2)cc1OC", "Potency": "inconclusive [inhibitor, single point]"}
{"compound": "Cc1ccc(Nc2cc(C)nc3c(C)cccc23)cc1", "Potency": "inconclusive [inhibitor, partial curve, poor fit]"}
{"compound": "CC(C)COC(=O)c1ccc(NC(=O)C2C3CCC(C3)C2C(=O)O)cc1", "note": "(centres undefined)", "Potency": "inconclusive [inhibitor, single point]"}
{"compound": "CCOc1cc(C2C(C(=O)OC)=C(C)NC3=C2C(=O)c2ccccc23)cc(Br)c1OCC", "note": "(centres undefined)", "Potency": "inconclusive [inhibitor, partial curve, poor fit]"}
{"compound": "COc1ccc(CCNc2cc(C)nc3c(-c4ccccc4)cnn23)cc1OC", "Potency": "inconclusive [inhibitor, single point]"}
{"compound": "COc1ccc(Cn2nc(C)n(N(C)c3ncc(C(F)(F)F)cc3Cl)c2=O)cc1", "Potency": "inconclusive [inhibitor, partial curve, poor fit]"}
{"compound": "N#Cc1ccccc1NC(=O)CSC1=Nc2ccccc2C2CC=NN12", "note": "(centres undefined)", "Potency": "inconclusive [inhibitor, single point]"}
{"compound": "CCc1nc(SCC(=O)c2ccc3c(c2)OCCO3)c2ccccc2n1", "Potency": "inconclusive [inhibitor, single point]"}
{"compound": "O=C(c1ccc2c(c1)N(Cc1ccccc1)CCS2)N1CCOCC1", "Potency": "inconclusive [inhibitor, partial curve, poor fit]"}
{"compound": "O=C(O)c1cccc(N2C(=O)CSC2c2ccccc2)c1", "note": "(centres undefined)", "activity change, negative = inhibition": "inactive: -8.09%"}
{"compound": "CC(C)NC(=S)N=Nc1c(O)[nH]c2ccc(C(C)C)cc12", "Potency": "inconclusive [inhibitor, single point]"}
{"compound": "CCc1cc(Cn2nc(-c3ccccc3)cc2C(=O)NCC2CC2)on1", "Potency": "inconclusive [inhibitor, partial curve, poor fit]"}
{"compound": "C=CCn1c(CCNC(=O)c2cccs2)nnc1SCC(=O)c1ccc(Cl)cc1", "activity change, negative = inhibition": "inactive: -1.05%"}
{"compound": "CC(C)c1ccc(NC(=O)/C(C#N)=C/c2ccncc2)cc1", "Potency": "inconclusive [inhibitor, full curve]"}
{"compound": "CC(C)(C)c1ccc(C(=O)Nc2ccc(C(=O)NCc3cccnc3)cc2)cc1", "Potency": "inconclusive [inhibitor, full curve, poor fit]"}
{"compound": "Cc1nn(-c2cccc(Cl)c2)c2nc(C(F)(F)F)[nH]c(=O)c12", "Potency": "inconclusive [inhibitor, partial curve, poor fit]"}
{"compound": "CCCCCCCNC(=O)C1(CC2CC(c3ccccc3)=NO2)CCNCC1", "note": "(centres undefined)", "activity change, negative = inhibition": "inactive: -6.82%"}
{"compound": "Cc1ccc(S(=O)(=O)Nc2cccc(-c3ccc(N4CCCCCC4)nn3)c2)cc1", "Potency": "inconclusive [inhibitor, partial curve, poor fit]"}
{"compound": "Cc1cccc(C2=NN(c3ccc(Br)cc3)[C@@H](C(=O)N3CCOC3=O)[C@@H]2c2ccc(Cl)cc2)c1", "Potency": "inconclusive [inhibitor, partial curve, poor fit]"}
{"compound": "O=C1C2=C(NC(=S)NC2c2ccc(Cl)cc2)NC(c2ccc(Cl)cc2)N1c1ccc(Cl)cc1", "note": "(centres undefined)", "Potency": "inconclusive [inhibitor, partial curve, poor fit]"}
{"compound": "O=C(CSCc1cnn(-c2ccccc2)c1-n1cccc1)NCC1CCCO1", "note": "(centres undefined)", "Potency": "inconclusive [inhibitor, partial curve, poor fit]"}
{"compound": "CCn1cc(S(=O)(=O)NCCc2ccc(OC)c(OC)c2)cn1", "activity change, negative = inhibition": "inactive: 3.71%"}
{"compound": "O=C(NCCC1=CCCCC1)c1ccc2c(=O)n3c(nc2c1)CCCCC3", "Potency": "inconclusive [inhibitor, single point]"}
